Data reported in PubChem BioAssay (NCI).
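48-hour exposure; five concentrations; linearly interpolated endpoints. Abbreviation: GI50, concentration required for 50% inhibition of growth. TGI marks complete inhibition of growth.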

Tested on: NCI-H322M lung
Assay: NCI tumour cell line growth inhibition, 48 h

| SMILES | GI50 | TGI |
| --- | --- | --- |
| CN1CCc2c(sc3ncnc(N/N=C/c4cccc(Cl)c4Cl)c23)C1 | 4.7 µM | 16.2 µM |
| COc1ccc2oc3c4[nH]c5ccccc5c4c4c(c3c2c1)C(=O)N(C(=O)OC(C)(C)C)C4=O | 3.04 µM | 65.5 µM |
